Reference: publication PMC4336329 (PLoS ONE, 2015)
Among all 310,000 compounds or so, about 2,200 (0.71%) showed an effect of 50% or more. The effect is printed as a negative number. Some of the results follow.

Biological target: human ether-à-go-go-related gene (hERG) potassium channel (human, UniProt Q12809)
Assay: primary screen, population patch clamp on CHO cells stably expressing hERG

Sequence of human ether-à-go-go-related gene (hERG) potassium channel (Q12809 whole entry, looked up): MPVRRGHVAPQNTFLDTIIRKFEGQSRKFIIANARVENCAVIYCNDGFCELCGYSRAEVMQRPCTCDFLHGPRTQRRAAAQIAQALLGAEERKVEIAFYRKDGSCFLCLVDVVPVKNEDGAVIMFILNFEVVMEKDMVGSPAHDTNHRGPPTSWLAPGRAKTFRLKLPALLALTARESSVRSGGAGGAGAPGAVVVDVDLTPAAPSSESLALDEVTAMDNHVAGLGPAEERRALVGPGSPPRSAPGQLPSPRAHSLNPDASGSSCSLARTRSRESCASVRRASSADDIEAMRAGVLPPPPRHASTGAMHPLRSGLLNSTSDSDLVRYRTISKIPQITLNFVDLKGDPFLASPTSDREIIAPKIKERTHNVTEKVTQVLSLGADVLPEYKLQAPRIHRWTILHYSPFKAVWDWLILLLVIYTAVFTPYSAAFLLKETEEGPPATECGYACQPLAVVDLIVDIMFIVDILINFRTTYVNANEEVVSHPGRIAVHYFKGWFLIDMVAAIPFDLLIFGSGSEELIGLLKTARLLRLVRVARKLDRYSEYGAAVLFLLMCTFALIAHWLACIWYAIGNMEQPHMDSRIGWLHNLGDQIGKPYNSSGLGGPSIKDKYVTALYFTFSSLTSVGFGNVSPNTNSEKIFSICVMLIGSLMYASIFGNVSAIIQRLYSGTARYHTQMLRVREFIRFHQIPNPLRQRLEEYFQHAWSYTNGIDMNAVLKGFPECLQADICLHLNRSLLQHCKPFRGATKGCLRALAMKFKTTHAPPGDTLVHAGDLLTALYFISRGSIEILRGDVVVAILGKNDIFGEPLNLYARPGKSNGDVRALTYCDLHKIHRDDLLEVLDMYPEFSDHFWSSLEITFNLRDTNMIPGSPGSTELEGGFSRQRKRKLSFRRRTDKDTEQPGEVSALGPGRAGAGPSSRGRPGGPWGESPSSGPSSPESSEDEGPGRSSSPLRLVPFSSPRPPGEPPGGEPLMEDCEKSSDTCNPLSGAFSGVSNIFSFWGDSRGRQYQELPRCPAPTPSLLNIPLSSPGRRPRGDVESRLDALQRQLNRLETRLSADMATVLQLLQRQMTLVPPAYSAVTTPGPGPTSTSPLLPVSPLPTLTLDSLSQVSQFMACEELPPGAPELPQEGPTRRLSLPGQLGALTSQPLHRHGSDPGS

SMILES | hERG current change (%, negative = inhibition) at 1uM
CCOC(=O)c1nnc(-c2ccccc2)nc1N1CCSCC1 | 1.52%
Cc1ccc(Cl)cc1NS(=O)(=O)c1ccc2oc(=O)ccc2c1 | -0.581%
CC(C)CNS(=O)(=O)c1ccc(CCC(=O)N2CCCC2)cc1 | 13.4%
Cc1nnc(N/N=C/c2c(O)n(-c3cccc(C(F)(F)F)c3)c(=O)c3ccccc23)[nH]c1=O | 6.94%
Cc1nc(SCC(=O)N(C)C2CCS(=O)(=O)C2)c(C#N)c(C)c1C (centres unmarked) | -6.6%
O=C(O)CSCC(=O)NCc1ccccc1 | 13%
CC(C)c1ccc(NC(=O)CCS(=O)(=O)c2cccc3nonc23)cc1 | 8.9%
COc1cc(CC(NC(C)=O)C(=O)NC2CCN(C(=O)Nc3ccccc3C)CC2)cc(OC)c1 (centres unmarked) | 9.35%
O=C(c1ccc(Cl)cc1)N1CCN(c2ncccn2)CC1 | 7.45%
Cc1ccc(S(=O)(=O)N2CCCCC2)cc1NC(=O)COc1ccccc1F | 5.06%
CCOC(=O)c1ccc(NC(=O)c2nc[nH]c2C(=O)NCC(=O)OC(C)(C)C)cc1 | 16.4%
CCCSc1nnc(NC(=O)Nc2ccccc2)s1 | 2.06%
COc1ccc(-n2c(C)nc3cc(C(=O)N4CCC5(CC4)OCCO5)ccc32)cc1 | -0.716%
COc1cc(-c2noc(C)c2/C=C/c2ccc(N)cc2)cc(OC)c1OC | 1.78%
N#CNC1=NCN(Cc2ccccc2)CN1 | 5.29%
COc1ccc(N2Nc3n[nH]c(N)c3N2)cc1 | -1.3%
CCCC1OC23CCCCC2C(C#N)(C(=N)O3)C1(C#N)C#N (centres unmarked) | 12.6%
CC(=O)c1oc2ccccc2c1N | 16.7%
CC(Oc1ccccc1Cl)C(=O)/C=C/N(C)C (centres unmarked) | 19.3%
CCc1nnc(NC(=O)c2ccc(-c3ccccc3F)o2)s1 | 11.7%
O=C(CN1CCN(Cc2ccccc2F)C1=O)NC1CCCC1 | 6.39%
CCn1c(=S)sc2c(=O)n(CC(=O)Nc3ccccc3OC)c(C)nc21 | 7.25%
COc1ccc(/C=C2\C(=O)N(Cc3ccc(F)cc3)CC(=O)N2Cc2ccccc2)cc1 | 7.5%

SMILES | hERG current change (%, negative = inhibition) at 1uM
CC(NC(=O)Nc1ccccc1)C(c1cccs1)N1CCN(c2ccccc2)CC1 (centres unmarked) | 13.2%
Cc1ccc(O)c(NC(=O)c2noc3c2CCc2ccccc2-3)c1 | 9.72%
CC(C)(c1ccccc1)c1ccc(OCC2CO2)cc1 (centres unmarked) | 17.8%
O=C1/C(=C/c2cc3c(cc2Cl)OCO3)N2CCC1CC2 | 14.8%
S=C(NCCN1CCOCC1)Nc1cccc(Cl)c1 | 4.81%
O=C(Nn1c(SCc2cccc([N+](=O)[O-])c2)nc2ccccc2c1=O)c1ccccc1 | 7.12%
COCCNC(=O)C(c1ccc(Cl)cc1)N(CCOC)C(=O)CCC(=O)Nc1ccccn1 (centres unmarked) | 7.5%
O=C(C1=C[C@@H](c2coc3ccccc3c2=O)C[C@@H](OCc2ccc(CO)cc2)O1)N1CCN(Cc2ccccc2)CC1 | -0.45%
Cc1ccc(Cn2nc(C)c(/C=N/NC(=O)c3cccnc3)c2C)cc1 | 5.98%
Cc1ncc(CN2CCCC(CCC(=O)NCc3ccccc3F)C2)s1 (centres unmarked) | 20.6%
COc1ccc(CNC(=S)Nc2cccc(C)c2C)cc1 | -7.25%
CC1CCN(S(=O)(=O)c2cc(F)ccc2CN2C(=O)c3cccnc3C2=O)CC1 | 0.0794%
Cn1c(=O)c(S(=O)C2CCCCC2)c(O)c2ccccc21 (centres unmarked) | 11.3%
COc1ccc(/C=C/C(=O)Oc2ccc(/C=N/NC(=O)c3ccncc3)cc2)cc1 | -2.79%
O=C1OC(N2CCN(Cc3ccccc3)CC2)c2ccccc21 (centres unmarked) | 13.9%
Fc1cccc(CN2CCN(c3ncccn3)CC2)c1 | -3.94%
COc1ccccc1N1CCN(C(=O)c2ccc(Cl)c(S(=O)(=O)NCc3ccco3)c2)CC1 | 13.5%
COC(=O)C1=C(c2ccc(F)cc2F)C[C@@H]2CC[C@H]1N2C | 10.1%
CC1OC(OCC2OC(Oc3c(-c4ccc(O)cc4)oc4cc(O)cc(O)c4c3=O)C(O)C(O)C2O)C(O)C(O)C1O (centres unmarked) | 11.7%
N#C/C(=C\c1ccc(OCCN2CCOCC2)cc1)C(=O)Nc1ccccc1 | 8.83%
COc1cc(C2C(C(C)=O)=C(O)C(=O)N2CCN2CCOCC2)ccc1O (centres unmarked) | 7%
Cc1ccc(S(=O)(=O)c2nnn3c2nc(N2CCC(C(N)=O)CC2)c2ccccc23)cc1 | 9.94%
CN(C)CCN1C(=O)c2ccccc2C1=O | 10%

SMILES | hERG current change (%, negative = inhibition) at 1uM
COc1cccc(NC(=O)CN(C)C(=O)CCCNC(=O)c2ccc(Cl)cc2)c1 | -5.92%
CC[C@@H](C)C(N)c1cn([C@@H](CCC(=O)O)C(=O)N2CCNCC2)nn1.Cl (some centres unmarked) | 10.2%
COc1ccc(C(=O)NC2=C(C#N)CCC2)cc1OC | 5.99%
O=C(NNS(=O)(=O)c1ccccc1F)c1cccc(S(=O)(=O)N2CCOCC2)c1 | 5.57%
COc1ccc(N2CCN(C(=O)c3ccc(CNc4c(N5CCOCC5)c(=O)c4=O)cc3)CC2)cc1 | 9.32%
CCOC(=O)C1(CCOC)CCN(Cc2ccc(COC)o2)CC1 | 21.7%
COc1ccc(SCCc2ccncc2)cc1.Cl | 1.8%
Cc1ccccc1N1CCN(C(=O)c2ccccc2NC(=O)c2ccccc2C(=O)O)CC1 | 13.1%
COc1ccc2cc(C(=O)NCc3ccccc3)[nH]c2c1.Cl | 10.1%
COc1ccc2oc(=O)c(C(=O)NCc3ccccn3)cc2c1 | 1.74%
CC(=O)c1c(C)[nH]c(C(=O)OCCCCN2C(=O)c3ccccc3C2=O)c1C | 8.72%
COC(=O)c1cc(OC)c(OC)cc1NC(=S)N1CCCCC1 | -2.5%
CCNC(=O)C1CN(S(=O)(=O)c2ccccc2)CCN1S(=O)(=O)c1ccccc1 (centres unmarked) | 8.46%
O=C(CNC(=O)N1CC(=O)Nc2ccccc21)NCc1ccc(Cl)cc1 | 14.3%
Cc1ccc(S(=O)(=O)N2CCN(C(=O)c3cc4c(C)nn(-c5ccccc5C)c4s3)CC2)cc1 | -2.25%
CCOCCCNc1c2c(nc3cc(-c4ccc(F)cc4)nn13)CCC2 | 11%
Br.CCn1c(=N)n(CC(=O)C23CC4CC(CC(C4)C2)C3)c2ccccc21 | -6.65%
CCOc1ccc(NC(=O)C2CC(=O)N(CC)C(=Nc3ccc4c(c3)OCO4)S2)cc1 (centres unmarked) | 16.2%
CN1C(=O)C(=Cc2ccc(SC3CCCCC3)o2)C(=O)N(C)C1=O | 6.95%
Cc1ccc(Oc2nn[nH]n2)cc1 | 3.02%
Cc1ccc(S(=O)(=O)N2CCN(S(C)(=O)=O)C2c2ccccc2)cc1 (centres unmarked) | 1.31%
Cc1cc(C)c(C)c(OCCOCCN2CCN(C)CC2)c1 | 12.3%
CCn1nc(C)c(NS(=O)(=O)c2ccccc2)c1C | 10.8%

SMILES | hERG current change (%, negative = inhibition) at 1uM
Cc1c(C)n(C)c2ccc(C(=O)N3CCN(c4ccccn4)CC3)cc12 | 7.44%
CSc1nsc(NC(=O)Nc2ccccc2)n1 | 10.3%
O=C(O)c1ccc(S(=O)(=O)Nc2ccc(F)c(Cl)c2)cc1 | 12%
Cc1cccc2cc(CN(Cc3cccnc3)C(=O)c3ccccc3F)c(Cl)nc12 | -2.26%
O=c1ccnc(Nc2ccc(Cl)cc2)[nH]1 | 3.38%
O=C(Cn1ncn2c(cc3ccccc32)c1=O)NCc1ccco1 | 7.29%
CCOc1cccc(CNCCc2c(C)[nH]c3ccc(OC(F)(F)F)cc23)c1O.O=C(O)C(=O)O | -4.67%
CCOC(=O)c1cnc(SCC)[nH]c1=O | -6.55%
CC(Oc1ccc2ccc(=O)oc2c1)C(=O)NCC1CCC(C(=O)O)CC1 (centres unmarked) | -8.59%
Cc1cccc(OCC(=O)Nc2c3c(nn2C(C)(C)C)CS(=O)(=O)C3)c1 | 5.09%
CCCCn1c(N)c(C(=O)OCCOC)c2nc3ccccc3nc21 | -12.1%
CCN1C(=O)[C@@H]2[C@H](C1=O)[C@@H]1CC(C(=O)OC)=C[C@@H](C(=O)OC)C3C1=C(C(=O)C3(CC)CC)[C@@H]2C (some centres unmarked) | 7.97%
COC(=O)/C(=C/c1ccc(OC)cc1)NC(=O)c1ccco1 | 5.8%
Cl.O=C(NCCN1CCN(c2ccccc2)CC1)c1cccc(Cl)c1 | 0.892%
COc1ccc(C(=O)Nc2nnc(Cc3ccc(OC)c(OC)c3)s2)c(OC)c1 | 1.12%
Br.CCCc1cc(-c2nc(-c3ccc(Br)cc3)cs2)ccn1 | 13.9%
C=CCN(CC=C)C(=S)NC(=O)c1ccc(OC)cc1 | 16.7%
Cc1ccc(S(=O)(=O)Nc2cc3c(cc2N2CCOCC2)n(C)c(=O)c(=O)n3C)cc1 | -1.36%
Cn1cc(S(=O)(=O)N2CCN(c3cccc(C(F)(F)F)c3)CC2)c(=O)n(C)c1=O | -2.59%
Cn1cc([N+](=O)[O-])cc1-c1nc2ccccc2n1C | 12.6%
